Data from PubChem BioAssay AID1508623 (National Center for Advancing Translational Sciences (NCATS), 2021).
The campaign covered roughly 48,000 compounds. About 450 (0.94%) were called active. Inconclusive results (about 19%) are left out. Calls come from the whole dose curve; as a rule, active = well fitted inhibition curve with a large enough effect; inconclusive = small, poorly fitted or top-dose-only effect; inactive = no such curve, though single readings can be large or run the other way. Some of the results follow.

Test: Primary qHTS for Identification of Small Molecule Inhibitors of Huntingtin Promoter Activity; note: nearly all actives have a fitted effect of over 50% in size
Settings: HEK293 HTT promoter firefly luciferase reporter (activity 0% = vehicle and -100% = no light), 24 h; series mostly up to 57.5 µM; activity change, negative = inhibition: at the top concentration
Outline: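 HEK293 cells carrying firefly luciferase reporters were seeded at 2,500 per well in Opti-MEM and cultured for 24 h. They were then treated with compounds at up to 57.5 uM final for 24 h at 37 degrees C before Dual-Glo luminescence readout.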
Potency is the fitted concentration of half-maximal effect.

Row | Compound | activity change, negative = inhibition | Potency
1 | COC(=O)CSc1ncc2c(n1)-c1ccccc1N(Cc1ccccc1C)S2(=O)=O | inactive: -5.83% | –
2 | O=C1CCC(N2C(=O)c3ccccc3C2=O)C(=O)N1 (configuration not stated) | inactive | –
3 | COc1ccc2nc3oc(C(=O)N4CCN(c5cc(C)ccc5C)CC4)cc3cc2c1 | inactive: 43.7% | –
4 | COc1ccccc1N1CCN(C(=O)C(CCSC)NS(=O)(=O)c2ccc3c(c2)oc(=O)n3C)CC1 (configuration not stated) | inactive: -16% | –
5 | CC(C)Oc1ccc(CNC(=O)CCCN2C(=O)CCn3nc(-c4cccn4C)cc32)cc1 | inactive: -3.39% | –
6 | O=C(c1ccco1)n1nc(-c2ccccc2)nc1NCc1ccc(Cl)cc1 | inactive: 0.154% | –
7 | CCc1ccc(NCc2cc3ccc(OC)cc3n(CC(=O)Nc3ccc(F)cc3F)c2=O)cc1 | inactive: -28.6% | –
8 | CCC(=O)N1c2ccccc2CC1C(=O)N1CCN(c2cccc(Cl)c2)CC1 (configuration not stated) | inactive: -8.1% | –
9 | COc1cccc(CNCCSc2nnnn2C)c1OCc1ccccc1Cl | inactive: -22% | –
10 | COc1cccc(CNS(=O)(=O)c2ccc3c(c2)CCN3C(=O)C2CCC2)c1 | inactive: -22% | –
11 | O=C(Nc1ccc(F)cc1)N1CCN(c2ccccc2F)CC1 | inactive: 20.3% | –
12 | Cc1cc(=O)[nH]c2nnc(SCc3ccc(F)cc3)n12 | inactive: -14.2% | –
13 | Cc1ccc(C)c(S(=O)(=O)c2nnn3c2nc(Nc2ccc(C)c(C)c2)c2sccc23)c1 | inactive: -3.25% | –
14 | CCOC(=O)c1ccc(-n2c(CCC(=O)O)ccc2-c2ccc(Br)cc2)cc1 | inactive: -7.24% | –
15 | COc1ccc(Cn2c(SCC(=O)NCc3ccc(Cl)cc3)nc3ccsc3c2=O)cc1 | inactive: -0.214% | –
16 | CC(C)(C)CC(C)(C)c1ccc(O)c(-n2nc3ccccc3n2)c1 | inactive: 2.13% | –
17 | O=C(NCc1cccs1)c1ccc(Cn2c(SCc3ccccc3)nc3cccnc32)cc1 | inactive: -30.3% | –
18 | Cc1cc(Cl)ccc1OCC(=O)Nc1c(Cl)ccc2nsnc12 | inactive: -32% | –
19 | COc1ccccc1-c1nc(SCC(=O)NCc2ccc(C)cc2)c2c(=O)n(C)c(=O)n(C)c2n1 | inactive: 27.9% | –
20 | O=C(COc1ccccc1F)Nc1ccc2oc(-c3cccc(Cl)c3)nc2c1 | inactive: 21.2% | –
21 | Cc1ccc(-c2ccc(=O)n(CC(=O)Nc3ccc(C)cc3Cl)n2)cc1 | inactive: -17.9% | –
22 | COc1cccc(/C=C/c2nc(C#N)c(NCCc3ccccc3)o2)c1 | inactive: 18.6% | –
23 | Clc1cccc(N2CCN(c3nc4ccccc4n4nnnc34)CC2)c1 | inactive: -8.04% | –
24 | COc1ccc(C2C=C(c3ccccc3)Nc3nc(NC(=O)c4cccc([N+](=O)[O-])c4)nn32)cc1 (configuration not stated) | inactive: -14.9% | –
25 | O=C1[C@@H]2[C@H]3CC[C@H](C3)[C@@H]2C(=O)N1CCCCN1CCN(c2ncccn2)CC1 | inactive: -2.58% | –

Row | Compound | activity change, negative = inhibition | Potency
26 | Cc1ccc(OCC(=O)Nc2cccc(-c3nc4ccccc4s3)c2)cc1 | inactive: 84.2% | –
27 | Cc1c(C(=O)NCc2ccccc2)sc2nc3n(c(=O)c12)CCCCC3 | inactive: 34.5% | –
28 | COc1cccc(CNC(=O)c2sc3nc(C)cc(C)c3c2-n2cccc2)c1OC | inactive: -16.7% | –
29 | CCOC(=O)c1ccc(NC(=O)C2CCCN(c3ncnc4onc(-c5ccc(F)cc5)c34)C2)cc1 (configuration not stated) | inactive: -24.7% | –
30 | CCOC(=O)COc1ccc(CC)cc1C(=O)c1ccn2nc(-c3ccccc3)cc2n1 | inactive: -7.32% | –
31 | COC(=O)c1sccc1S(=O)(=O)N1CCN(c2cc(Cl)ccc2C)CC1 | inactive: -19.4% | –
32 | COC(=O)C(Cc1c[nH]c2ccccc12)NC(=O)COc1cccc(C)c1 (configuration not stated) | inactive: -0.167% | –
33 | Cc1ccc(-c2n[nH]c3c2C(c2ccc(C(C)(C)C)cc2)NC3=O)cc1 (configuration not stated) | inactive: -15.4% | –
34 | Cc1nn(S(=O)(=O)c2ccc(C(C)(C)C)cc2)c(C)c1S(=O)(=O)N1CCCCCC1 | inactive: -3.54% | –
35 | COCCNC(=O)CCn1c(=O)c2cc(OC)c(OC)cc2n(CC(=O)Nc2ccc(Cl)cc2F)c1=O | inactive: -26.1% | –
36 | Cc1ccc(NC(=O)c2oc3ccc(S(=O)(=O)N4CCC5(CC4)OCCO5)cc3c2C)cc1C | inactive: -9.25% | –
37 | CCC1CN(C(=O)N2CCC(C(=O)NCc3ccc(N(C)C)cc3)CC2)c2ccccc2O1 (configuration not stated) | inactive: -28.1% | –
38 | CCCCC(=O)NCc1nc2cccnc2n1Cc1ccc(OC)cc1 | inactive: -2.82% | –
39 | COc1cccc(Nc2ccc3cc(S(=O)(=O)N4CCC(C)CC4)ccc3n2)c1 | inactive: -12.2% | –
40 | CCCOc1cccc(C(=O)Nc2cccc(-c3nc4ncccc4o3)c2C)c1 | inactive: -4.92% | –
41 | CCn1cc2nc(SCC(=O)Nc3ccc(OC)c(OC)c3)n(Cc3ccc(Cl)cc3)c(=O)c2n1 | inactive: -30.3% | –
42 | CC(=O)c1cccc(NC(=O)C2CCN(C(=O)c3cnn(-c4ccccc4)c3-n3cccc3)CC2)c1 | inactive: -29.8% | –
43 | Cc1c(C(=O)NCc2ccccc2Cl)sc2nc3n(c(=O)c12)CCCCC3 | inactive: 9.44% | –
44 | COc1ccc(-c2cc(-c3ccc(F)cc3)nc3c2COc2ccc(F)cc2-3)cc1 | inactive: -6.41% | –
45 | COc1ccc(-c2oc3ncn4nc(-c5ccccc5O)nc4c3c2-c2ccc(OC)cc2)cc1 | inactive: -1.92% | –
46 | O=C(NCc1ccccc1)C1CCCN(S(=O)(=O)c2cccc3nsnc23)C1 (configuration not stated) | inactive: -19.8% | –
47 | CCOc1ccc(NC(=O)CN2C(=O)CC(C)Sc3ccccc32)cc1 (configuration not stated) | inactive: -10.9% | –
48 | Cc1ccc2c(c1)C(Cc1ccccc1F)C(=O)N2 (configuration not stated) | inactive: -18.6% | –
49 | COc1ccc(CCNC(=O)C(CC(C)C)N2Cc3ccccc3C2=O)c(OC)c1OC (configuration not stated) | inactive: -22.8% | –
50 | CCn1cc(CCC(=O)NCc2ccc(C)cc2)c2ccccc21 | inactive: -15.2% | –

Row | Compound | activity change, negative = inhibition | Potency
51 | CC(C)Oc1ccccc1C1C=C(C(=O)O)Nc2ncnn21 (configuration not stated) | inactive: -20.8% | –
52 | COc1ccc(CCn2c3c(c(=O)[nH]c2=O)C(NC(=O)c2ccccc2F)(C(F)(F)F)C(=O)N3)cc1OC (configuration not stated) | inactive: -10.4% | –
53 | COc1cc2c(=O)n(Cc3ccccc3Cl)c(=O)n(CC(=O)Nc3ccc(C)c(C)c3)c2cc1OC | inactive: -0.307% | –
54 | Cc1cccc(C(=O)Nc2cc(-c3nc4cccnc4s3)ccc2C)c1 | inactive: 1.05% | –
55 | COc1ccc(C)cc1NC(=O)C1CCN(S(=O)(=O)c2ccc3[nH]c(=O)oc3c2)CC1 | inactive: -12.7% | –
56 | COc1ccc(N2CCN(C(=O)c3cn(C)c4ccc(S(=O)(=O)N(C)C5CCCCC5)cc4c3=O)CC2)cc1 | inactive: -6.47% | –
57 | COc1ccc(CNC(=O)C2CCN(S(=O)(=O)c3c(C)noc3/C=C/c3cccs3)CC2)cc1 | inactive: -18.7% | –
58 | Cc1ccccc1NC(=O)CCOc1ccccc1 | inactive: 58.9% | –
59 | Cn1cc(-c2cc3n(n2)CCC(=O)N3CCCC(=O)Nc2ccccc2Cl)c2ccccc21 | inactive: -0.146% | –
60 | Cc1ccc(NC(=O)c2cc(CN3CCOCC3)on2)cc1Cl | inactive: 27% | –
61 | Cc1ccccc1S(=O)(=O)Cc1ccc(C(=O)NCc2ccccc2Cl)o1 | inactive: -24.5% | –
62 | Nc1nn(-c2ccccc2)nc1C(=O)OCc1ccccc1Br | inactive: 4.52% | –
63 | COc1ccccc1N1CCN(CCCNc2cc(=O)n(C)c(=O)n2C)CC1 | inactive: 4.69% | –
64 | O=C(c1cccs1)c1cn(CCOc2ccc(F)cc2)c2ccccc12 | inactive: -26.8% | –
65 | CCOC(=O)c1c(C)[nH]c(C)c1S(=O)(=O)NCC(=O)Nc1ccc(CC)cc1 | inactive: -9.57% | –
66 | O=C(Cn1cnc2onc(-c3ccc(F)cc3)c2c1=O)N1CCN(c2ccccc2F)CC1 | inactive: -22.5% | –
67 | CCOC(=O)c1noc2ncn(CC(=O)Nc3cc(Cl)ccc3OC)c(=O)c12 | inactive: -3.93% | –
68 | O=C(O)Cc1sc(Nc2ccc(C(=O)O)cc2)nc1-c1ccccc1 | inactive: 47.8% | –
69 | CCOc1ccccc1CNC(=O)CCCN1C(=O)COc2ccc(C)cc21 | inactive: -18% | –
70 | COc1ccc(-c2cn(-c3ccc(C)cc3)c(S(=O)(=O)CC(=O)Nc3ccccc3)n2)cc1 | inactive: 9.47% | –
71 | Cc1ccc(CNC(=O)CN(C)S(=O)(=O)c2ccc(Br)s2)cc1 | inactive: 1.17% | –
72 | Cc1oc2ncn(CC(C)C)c(=O)c2c1C(=O)Nc1cccc(C(F)(F)F)c1 | inactive: -1.6% | –
73 | O=C(Nc1ccc(Cl)c(Cl)c1)c1cc(S(=O)(=O)N2CCN(c3cccc(Cl)c3)CC2)ccc1F | inactive: -10.1% | –
74 | O=C(NCCCCc1ccccc1)c1nn(-c2ccccc2F)nc1CO | inactive: -23.7% | –
75 | Cc1nn(CCC(=O)NCc2cccc(Br)c2)c(=O)c2nn(-c3ccccc3)c(C)c12 | inactive: -10% | –

Row | Compound | activity change, negative = inhibition | Potency
76 | CCn1c(=O)c2sccc2n2c(CCC(=O)N3CCN(c4ccccc4OC)CC3)nnc12 | inactive: 3.61% | –
77 | COc1ccc(-c2nnc(SCC(=O)Nc3ccccc3C)o2)cc1OC | inactive: 4.88% | –
78 | CCCOc1ccc(C(=O)NCC(c2ccc(OC)cc2)N2CCCCC2)cc1 (configuration not stated) | inactive: -10.4% | –
79 | CC(C)NC(=O)Cn1ccc2cc(S(=O)(=O)N3CCCCCC3)ccc21 | inactive: -20.9% | –
80 | O=S(=O)(c1ccccc1)c1nc(-c2cccs2)oc1N1CCCCC1 | inactive: -34.6% | –
81 | Cc1cccc(OCCCSc2nc(-c3ccc(C(C)(C)C)cc3)nc3cc(=O)[nH]n23)c1C | inactive: 4.64% | –
82 | C1Cc2[nH]nc(-c3nn[nH]n3)c2C1 | inactive: 0.93% | –
83 | O=C(O)[C@H](CC(=O)N1C[C@@H]2CCCC[C@H]2C1)Cc1ccccc1 | inactive: 13.3% | –
84 | CCCCCn1c(=O)[nH]c2cc(C(=O)NCc3ccc(F)cc3)ccc2c1=O | inactive: -2.77% | –
85 | Cc1cccc(-n2c(=O)c3c(c4cc(C)ccc4n3C)n(CC(=O)Nc3ccccc3Cl)c2=O)c1 | inactive: -15.2% | –
86 | CC(C)c1ccc(S(=O)(=O)c2nnn3c2nc(N2CCOCC2)c2sccc23)cc1 | inactive: -5.75% | –
87 | COc1ccc(CCC(=O)NCc2nc3cccnc3n2Cc2cccc(OC)c2)cc1 | inactive: -2.86% | –
88 | COc1ccc(Cl)cc1NC(=O)Cn1nc(C(F)(F)F)c2c1CCC2 | inactive: -27.8% | –
89 | COc1nc(N)nc2c1ncn2[C@@H]1O[C@H](CO)[C@@H](O)[C@@H]1O | inactive | –
90 | CCCCc1nn2c(=O)cc(COC(=O)C(C)Oc3ccccc3)nc2s1 (configuration not stated) | inactive: -2.13% | –
91 | COc1ccc(NS(=O)(=O)c2ccc3c(c2)CCCN3C(=O)C2CCC2)cc1OC | – | active: 1.78 µM
92 | CC(C)CNC(=O)c1c(-c2ccccc2)c(-c2ccccc2)nn(C)c1=O | inactive: -15% | –
93 | COc1ccc2c(c1)CC(NC(=O)Nc1ccc(NC(C)=O)cc1)CO2 (configuration not stated) | inactive: 0.824% | –
94 | COc1ccccc1CNC(=O)C1CCN(Cc2cc3ccccc3n2Cc2cccc(C)c2)CC1 | inactive: -18.6% | –
95 | Cc1ccccc1Cn1c(=O)n(CCCCC(=O)NCc2ccccc2Cl)c(=O)c2ccccc21 | inactive: -8.76% | –
96 | O=C(CSc1nnc(-c2ccncc2)n1-c1ccccc1)Nc1ccc(Br)cc1 | inactive: 16.3% | –
97 | CCOc1ccc(NC(=O)C2CCN(S(=O)(=O)c3ccc4c(c3)oc(=O)n4C)CC2)cc1 | inactive: -4.39% | –
